The text below walks through data of article PMC12040169 (PLOS Biology, 2025).

The list shows a part of the results.

For this assay, the system named is T1, C. trachomatis L2/434/Bu expressing GFP (CTL2-GFP).
T1 construct: L2/434/Bu GFP intracellular growth in HeLa cells
More on the design: species or system HeLa; C. trachomatis total inclusion area by high-content imaging, normalised to DMSO. As to conditions: total inclusion area; 28.5 h, 10 µM; inhibitor. An outline of the steps: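 Following bulk GFP and resorufin fluorescence reads, infected cells were fixed, Hoechst-stained and imaged on a high-content platform. Inclusion total area and number per well served as growth proxies; nuclei counts indicated host viability. MICs were derived as for the fluorescence assay.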
On to `CN(C)CCN(C)c1ccc(/C=C/c2ccccc2)cn1` [CBK037026], for which the “% of control remaining” value turned out to be 68.8382.

In the case of `O=C(O)c1cc(-c2ccco2)nc2ccccc12` [CBK027882], the “% of control remaining” value worked out at 101.526.

Regarding `O=C(c1cccnc1)N1CCCC2(CCN(C(=O)c3ccoc3)C2)C1` (centres unmarked) [CBK131640], the “% of control remaining” value turned out to be 88.4712.

In the case of `CC(C)Nc1ccc(S(=O)(=O)N(Cc2ccccc2)Cc2ccccc2)cn1` [CBK267307], the “% of control remaining” value worked out at 93.031.

For the compound `Cc1noc(C)c1C(=O)N1CCN(Cc2ccccc2)CC1` [CBK200173], the “% of control remaining” value turned out to be 92.169.

`CC(=O)Oc1cccc(N2C(=O)c3ccc(Oc4cccc(N)c4)cc3C2=O)c1` [CBK261099]: the “% of control remaining” value is given as 97.8314.

Regarding `CN(C)S(=O)(=O)N(CC(=O)NCc1ccccc1Cl)c1ccccc1` [CBK269081], the “% of control remaining” value came to 81.7959.

As to `CSCCN(C)C(=O)c1nnn(Cc2ccc(F)cc2F)c1C` [CBK306468], the “% of control remaining” value is listed as 74.7278.

For `O=C(N[C@@H](Cn1cc(Cl)c(=O)[nH]c1=O)C(=O)O)C1CCC1` [CBK289659], the “% of control remaining” value is recorded as 126.666.

For the compound `FC(F)(F)c1cccc(OCCN2CCOCC2)n1` [CBK113289], the “% of control remaining” value amounted to 49.1954.

Turning to `O=C(NCCn1cncn1)C1(c2ccccc2F)CC1` [CBK283087], the “% of control remaining” value stood at 89.1609.

With `OC1CCN(CC(O)Cn2c3ccccc3c3ccccc32)CC1` (centres unmarked) [CBK305784], the “% of control remaining” value was determined as 22.1339.

For `COC(=O)[C@@H]1CN(C(=O)c2ccc(OC)cc2)CCN1C(C)=O` [CBK289578], the “% of control remaining” value is 87.1655.

As to `O=[N+]([O-])c1cnc(NCCCn2ccnc2)c([N+](=O)[O-])c1` [CBK262511], the “% of control remaining” value is 82.6379.

Consider `CCc1c(C)sc(NC(=O)C2C3C=CC(C3)C2C(=O)O)c1C(N)=O` (centres unmarked) [CBK265433], for which the “% of control remaining” value is recorded as 91.1642.

Turning to `CCOC(=O)C(CNC(=O)c1c(CC)noc1C)Cc1ccccc1` (centres unmarked) [CBK305961], the “% of control remaining” value is 71.0361.

For `CS(=O)(=O)Nc1cccc(-c2nnn[nH]2)c1` [CBK062150], the “% of control remaining” value came out at 99.3529.

With `O=C(CSc1nnc(-c2ccncc2)n1-c1ccccc1)N/N=C/c1ccco1` [CBK262828], the “% of control remaining” value worked out at 109.162.

For `O=C(O)CSc1cccc2cccnc12` [CBK126918], the “% of control remaining” value was 119.533.

For `COc1ccc(-c2cncc(N3CCN(C)CC3)n2)cc1` [CBK065378], the “% of control remaining” value is 83.3322.

Regarding `CCN(CC)C(=O)c1sc2nc(-c3cccs3)nc(C)c2c1N` [CBK115366], the “% of control remaining” value is 97.332.

With `COc1ccc(CCN2CCN(c3nccnc3OCc3cc(C)on3)CC2)cc1OC` [CBK084207], the “% of control remaining” value is listed as 72.1314.

For `O=C(Nc1ccc2[nH]ccc2c1)c1c(F)ccc(Cl)c1F` [CBK159673], the “% of control remaining” value was found to be 92.2659.

Turning to `COc1cc(CN2CCc3c([nH]c4ccccc34)C2)c([N+](=O)[O-])cc1OC` [CBK261588], the “% of control remaining” value came out at 109.334.

Consider `OC1CCC(Nc2cncc(-c3cccc(Cl)c3)n2)CC1` (centres unmarked) [CBK066031], for which the “% of control remaining” value amounted to 76.0564.

`Cc1cc(NS(=O)(=O)c2ccc(Cl)c(Cl)c2)n(C)n1` [CBK067254]: the “% of control remaining” value was found to be 123.287.

On to `COc1ccc(Cl)c(NC(=O)NCCN2CCN(c3ccccc3)CC2)c1` [CBK268899], for which the “% of control remaining” value worked out at 109.43.

Consider `CC(C)c1nnc(CCC(=O)N2CCC(c3ccccc3)C2)o1` (centres unmarked) [CBK281925], for which the “% of control remaining” value is 109.511.

Turning to `Cn1cc(CCC(=O)N2CCc3[nH]c4ccc(Cl)cc4c3C2)cn1` [CBK304636], the “% of control remaining” value is recorded as 41.4953.

For the compound `O=C(O)c1sc2cc(C(F)(F)F)cnc2c1-c1cccs1` [CBK089890], the “% of control remaining” value was 88.5437.

`O=C(NCCN1CCOCC1)c1cc(-c2ccc(F)cc2)nc2ccc(Br)cc12` [CBK294450]: the “% of control remaining” value is 122.753.

For `Clc1nccnc1NCCOc1ccccc1` [CBK113564], the “% of control remaining” value is listed as 77.8549.

Take `O=C(O)CCCC(=O)Nc1ccccc1-c1ccccc1` [CBK231405]: the “% of control remaining” value amounted to 70.3508.

Regarding `O=C(Cc1cc(F)c(F)c(F)c1)Nc1cnccn1` [CBK161764], the “% of control remaining” value is reported as 81.0501.

Turning to `O=C(Nc1nc2ccccc2s1)c1cccnc1Cl` [CBK071983], the “% of control remaining” value was 90.4122.

Consider `O=[N+]([O-])c1cc(S(=O)(=O)Nc2ccc(C(O)(C(F)(F)F)C(F)(F)F)cc2)ccc1Cl` [CBK062106], for which the “% of control remaining” value is 86.4203.

As to `O=C(Nc1ccc(C(=O)OCC(=O)c2cccc3ccccc23)cc1)c1ccccc1` [CBK265518], the “% of control remaining” value came to 87.1115.

Regarding `CN1C(=O)CC2(C1=O)C(=O)N(CCCOc1ccc(F)cc1)c1ccccc12` (centres unmarked) [CBK075513], the “% of control remaining” value was 93.4736.

Take `CCOC(=O)C1CCCN(S(=O)(=O)c2sc3ccc(Cl)cc3c2C)C1` (centres unmarked) [CBK154797]: the “% of control remaining” value is on record as 85.1333.

Regarding `Cc1onc(-c2ccccc2)c1C(=O)Nc1cccc(S(=O)(=O)N2CCOCC2)c1` [CBK268159], the “% of control remaining” value is reported as 106.95.

In the case of `COc1ccc(CNC(=O)c2cc(S(=O)(=O)N3CCCC3)cs2)cc1` [CBK307576], the “% of control remaining” value is 58.9064.

Take `CN(C)CCN(C)c1cncc(-c2cc3ccccc3o2)n1` [CBK066028]: the “% of control remaining” value is given as 88.9405.

Take `CC1CC1C(=O)NCC(=O)Nc1nc2ccc(OC(F)(F)F)cc2s1` (centres unmarked) [CBK297874]: the “% of control remaining” value is 65.2877.

Take `O=C(O)CCCC(=O)Nc1ccccc1-c1nc2ccccc2[nH]c1=O` [CBK280451]: the “% of control remaining” value is given as 99.2754.

`O=C(O)CCCCCNS(=O)(=O)c1ccc(Cl)cc1` [CBK261940]: the “% of control remaining” value was 85.0129.

With `Cc1noc(C)c1CCC(=O)NC(Cc1ccncc1)C1CC(O)C1` (centres unmarked) [CBK306790], the “% of control remaining” value came to 74.2672.

For the compound `O=C(O)c1ccccc1C(=O)Nc1cccc(-c2noc(-c3cccc(F)c3)n2)c1` [CBK299813], the “% of control remaining” value stood at 43.9528.

Consider `Nc1ncc(-c2cccnc2)nc1NC1CCC(O)CC1` (centres unmarked) [CBK063840], for which the “% of control remaining” value stood at 93.8627.

Turning to `Cc1nc2ccccc2n1CCNC(=O)c1ccccc1SCc1ccc(C#N)cc1` [CBK297082], the “% of control remaining” value came to 113.792.

On to `CC(C)(C)OC(=O)NCCC(=O)Oc1ccc2c3c(c(=O)oc2c1)CCCC3` [CBK265008], for which the “% of control remaining” value was determined as 110.881.

On to `Clc1ccc(Nc2ncnc3ccccc23)cc1` [CBK072625], for which the “% of control remaining” value is 105.086.

Regarding `O=C(NCc1cc(C2CC2)[nH]n1)C1(c2ccccc2F)CC1` [CBK283140], the “% of control remaining” value was found to be 118.167.

As for `COc1cc(OC)nc(CN2C(=O)CC3(C2=O)C(=O)N(CC(=O)c2ccccc2)c2ccc(C)cc23)n1` (centres unmarked) [CBK076059], the “% of control remaining” value is 90.8265.
